SMILES strings stand for the structures.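 All cell lines were grown in 96-well plates and treated with compound for 48 hours. GI50 is the concentration that inhibits growth by half. TGI: concentration producing complete growth inhibition.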

This assay relates to NCI-H322M lung. As to the kind of experiment: DTP human tumour cell line panel, 48 h.
Usually TGI stands for the concentration at which net growth stops. Take `CC(C)NCC(O)COC(=O)c1cccs1` (stereo not given): the TGI is over 100 µM. On the same count and under the same terms, for `COc1ccc(C(c2ccc(C(C)C)cc(=O)c2O)c2ccc3cccnc3c2O)cc1` (stereo not given) the value was 77 µM; for `C[C@]12CCC(=O)C=C1CC[C@@H]1[C@@H]2[C@@H](O)C[C@@]2(C)[C@H]1CC[C@]2(O)C(=O)CO`, over 100 µM; for `O=c1c2ccccc2nc(-c2ccc(Br)cc2)n1NC1OC(CO)C(O)C(O)C1O` (stereo not given), over 100 µM. As usually defined, the GI50 is the concentration that inhibits growth by half. For the compound `N=C(N)c1ccc(-c2ccc(-c3ccc(Cl)cc3)o2)o1`, the GI50 is 1.67 µM and the TGI came out at 3.23 µM. As to `Cc1ccc2c(c1)C(=O)C(Cc1ccccc1C(=O)O)C2` (stereo not given), the TGI was over 100 µM. The same measure, in the same setting: the result for `COC(=O)C1Cc2cccc(C)c2C1` (stereo not given) reads over 100 µM; that for `[O-][N+](CCO)(CCO)c1ncnc2nc[nH]c12`, over 100 µM. `CC1(C)C(O)C[C@]23CCC[C@](C)(C[C@@H](O)C12)C3` (stereo not given in full) yielded a TGI of over 100 µM. Regarding `O=C(O)c1ccc2c(c1Nc1ccccc1)C(=O)c1ccccc1C2=O`, the GI50 is 37 µM and the concentration for total growth inhibition (TGI) is over 100 µM. The matching figures for `Cc1cccc2c(N=Nc3ccc(S(N)(=O)=O)cc3)c(O)[nH]c12`: over 25 µM and over 25 µM. For `CCOC(=O)/C(=C/c1ccc([N+](=O)[O-])cc1)C(=O)c1ccccc1`, the GI50 was 2.36 µM and the TGI came to 6.61 µM. In turn, `COC(=O)C1(C(=O)OC)CC2c3c(c4ccccc4n3C)CC(C1=O)N2Cc1ccccc1` (stereo not given) had a TGI of over 100 µM. In the case of `COC(=O)C(C)NP(=O)(OCc1ccc(Cn2cnc3c(=O)[nH]c(N)nc32)cc1)Oc1ccccc1` (stereo not given), the GI50 was over 100 µM and the TGI is over 100 µM. In the case of `C=C1C(=O)O[C@H]2[C@H]1CC/C(COC(=O)CCCCCCCCC(=O)OC/C1=C/CC[C@@]3(C)O[C@H]3[C@H]3OC(=O)C(=C)[C@@H]3CC1)=C\CC[C@@]1(C)O[C@@H]21`, the GI50 was 2.81 µM and the TGI came out at 10.6 µM. For the compound `CCOC(=O)CC(=O)C(=O)NNC1=NCCCN1`, the TGI is over 100 µM.

The compound `Cc1cc(C)c(O)c(Cc2cccc(Cc3cc(C)cc(C)c3O)c2O)c1` showed a concentration for total growth inhibition (TGI) of over 100 µM. With `CCOC(=O)c1ccc(N(CCOS(C)(=O)=O)CCOS(C)(=O)=O)cc1C`, the GI50 is over 100 µM and the concentration for total growth inhibition (TGI) is over 100 µM. Turning to `Cc1ccc([N+](=O)[O-])cc1NC(=O)C(=O)Cc1occc(=O)c1O`, the TGI was over 100 µM.

`ClC1CCC2OOC1O2` (stereo not given) showed a TGI of over 100 µM.

For the compound `Cc1ccc2c(=O)cc(-c3cccc4ccccc34)[nH]c2n1`, the TGI was over 100 µM. `CNNCc1ccc(C(=O)NC(C)C)cc1`: the TGI is over 500 µM. Same read-out and setting: the result for `C=C(C)CC1=C(OCC)C(OC)(OCC)C1=O` (stereo not given) reads over 100 µM; that for `CC1(C)C=C(/C=N/Nc2ccc([N+](=O)[O-])cc2)C(C#N)=C(O)C1(C#N)C#N`, over 100 µM. In the case of `Nc1nc(N)c2c(n1)NC(c1ccccc1)CC(/C=C/c1ccc(Cl)cc1)=N2` (stereo not given), the TGI came to 28.2 µM. Still for that read-out and setting: the result for `CCOC(=O)n1[nH]c(=O)n(-c2ccccc2)c1=O` reads over 100 µM; that for `COc1c2c(cc3c1C(O)N1CC[C@]34[C@H]3O[C@H]3[C@H](OC)C[C@@H]14)OCO2` (stereo not given in full), over 100 µM. On to `COc1ccc(-c2nn(-c3cccc(NC(=O)Nc4ccc(Cl)c(C(F)(F)F)c4)c3)cc2-c2ccncc2)cc1Cl`, for which the GI50 is 3.86 µM and the TGI was over 100 µM. Compound `N#CC1=C(S)N(C2OC(CO)C(O)C(O)C2O)C(c2ccccc2)=CC1c1ccccc1` (stereo not given) yielded a TGI of over 100 µM. Still for that read-out and setting: for `NCCNc1nc(N2CCCC2)c2nc(Cl)c(NCc3ccccc3)nc2n1` the value was 5.94 µM; for `CN(c1ccccc1)S(=O)(=O)c1ccccc1[N+](=O)[O-]`, over 100 µM. Regarding `Cc1c(C(=O)CC(=O)C(=O)Nc2ccc(Cl)c(Cl)c2)[n+](=O)c2ccccc2n1[O-]`, the TGI stood at 56.3 µM. In turn, `COC(=O)C1=NN2c3ccccc3C(=O)OCCC2(C)C1` (stereo not given) gave a TGI of over 100 µM.

As to `COC(=O)C(C(=O)C(=O)Nc1ccccc1C(C)=O)c1nc2ccc(Cl)cc2[nH]c1=O` (stereo not given), the TGI is over 100 µM. Still for that read-out and setting: for `CCCCCCCC/C=C\CCCCCCC(F)C(=O)O` (stereo not given) the value was over 12.5 µM; for `COC(=O)C1C(C)N1C` (stereo not given), over 100 µM. Take `OCC1NCC(O)C(O)C1O` (stereo not given): the TGI is over 100 µM. Take `COc1cc(/C=C/C(=O)c2ccc(Nc3ncnc4ccccc34)cc2)cc(OC)c1`: the GI50 is 45.3 µM and the total growth inhibition concentration (TGI) is over 100 µM. Regarding `Cc1cc(O)c(C(C)C)cc1CN1CCCCC1`, the TGI was over 100 µM. Same read-out and setting: for `COc1ccc(NC(=O)C(=O)C2CNC(=O)NC2=O)c(OC)c1` (stereo not given) the value was over 100 µM. As for `Cc1ccc(S(=O)(=O)/N=c2\ssc(Nc3ccccc3)c2Cl)cc1`, the GI50 was 0.005 µM and the TGI amounted to 12.1 µM. `Cc1ccccc1NC(=O)C(=O)C(c1cnc2ccc([N+](=O)[O-])cc2n1)[N+](=O)[O-]` (stereo not given) came in with a TGI of over 100 µM. `CN(C)CCn1c(=O)c2ccc3c4c(nn3CCN(C)C)c3cc(N)ccc3n(c1=O)c24` returned a TGI of under 0.042 µM. The same measure, in the same setting: for `COC(=O)c1ccc(N=NN(C)COc2ccc(C#N)cc2)cc1` the value was over 100 µM. Regarding `O=C1C(=O)c2ccccc2-c2ccccc21`, the GI50 was 1.68 µM and the TGI is 3.11 µM.

In the case of `C/C(=N\NC(=O)c1cccnc1)c1cccc(/C(C)=N/NC(=O)c2cccnc2)n1`, the TGI was over 100 µM.

On to `CC(=O)OC1CC(O)CC2=CCC3C4CCC(C(C)(O)C(O)CC5COC(=O)C5C)C4(C)CCC3C21C` (stereo not given), for which the TGI was over 25 µM. Regarding `Cc1cc2c(c(C=Nc3ccc([N+](=O)[O-])cc3)c1)OC1(C=C2)Oc2ccccc2C(=O)N1C` (stereo not given), the total growth inhibition concentration (TGI) amounted to 36.1 µM. For `Clc1cc(Cl)c(Cl)c(-c2nc(-c3cccnc3)cs2)c1`, the GI50 was over 100 µM and the TGI is over 100 µM.

`C#CCOCn1cnc2c(=S)nc[nH]c21` yielded a TGI of over 100 µM. In the case of `Cc1cc(N2CCCCCC2)nc(NC2CCCC(Nc3ccnc4cc(Cl)ccc34)C2)n1` (stereo not given), the GI50 is 1.62 µM and the TGI worked out at 3.1 µM. On to `COc1cc(/C=C2\CN(C)C/C(=C\c3cc(OC)c(OC)c(OC)c3)C2=O)cc(OC)c1OC`, for which the GI50 was 0.76 µM and the TGI came to 2.04 µM.

`O=C1c2ccccc2-c2nc3ccc(O)cc3n21` showed a TGI of over 100 µM. Consider `COc1ccc(/C(C)=C(\c2ccc(Cl)cc2)c2ccc(OCCN3CCCC3)cc2)cc1F`, for which the GI50 was 3.07 µM and the TGI came to 6.24 µM. `C[C@]12CCC(=O)C=C1CC[C@@H]1[C@@H]2CC[C@]2(C)C(=O)[C@H](n3ccnc3)C[C@@H]12` returned a concentration for total growth inhibition (TGI) of over 100 µM. Same read-out and setting: the result for `CCOP(=O)(OCC)C1CC(O)CN1OC(=O)C(C)(C)C` (stereo not given) reads over 100 µM.

`COc1[nH]c(C(Cl)(Cl)Cl)c(Cl)c(=O)c1Cl`: the TGI was over 100 µM. Regarding `COc1ccc(N(CC(=O)NCCC[Te]c2ccccc2)C(=O)CCSC2=C(C)C(=O)c3ccccc3C2=O)cc1`, the GI50 is 2.34 µM and the TGI is 7.98 µM. For `COC(=O)C(=O)C(C(=O)C(=O)Nc1ccc(Cl)cc1C)c1nc2ccc(C(=O)c3ccccc3)cc2[nH]c1=O` (stereo not given), the TGI is over 100 µM.

`CCOC(=O)C(NC(=O)c1ccccc1)(Nc1ccc(S(=O)(=O)Nc2nc(C)cc(C)n2)cc1)C(F)(F)F` (stereo not given) showed a TGI of over 100 µM. Same read-out and setting: the result for `CC(=O)CCNc1ccc(-c2cc(-c3ccc(N(C)C)cc3)nc3ccc4ccccc4c23)cc1` reads over 100 µM; that for `O=C1N=C(c2ccccc2)OC1C(=O)c1ccccc1` (stereo not given), over 100 µM; that for `OC(c1cccnc1)C(F)(F)c1nc2ccccc2o1` (stereo not given), over 100 µM. On the same count and under the same terms, the result for `OCCOCn1cc(Cn2ncc3c(SCc4ccccc4)ncnc32)nn1` reads over 100 µM; that for `CCOC(=O)c1sc2nc(SC)nc3c2c1N=CN3c1ccccc1Cl`, over 100 µM. As for `O=C1OCc2c1cc(F)cc2[N+](=O)[O-]`, the GI50 is over 100 µM and the TGI is over 100 µM.

Take `COc1ccc(/C=C2\CN(Cc3cn(CCCNc4ccnc5cc(Cl)ccc45)nn3)C/C(=C\c3ccc(OC)c(OC)c3)C2=O)cc1OC`: the GI50 was 1.18 µM and the TGI amounted to 2.74 µM.

As to `O=[n+]1c2c(n([O-])c3ccccc31)-c1cccc3cccc-2c13`, the TGI is over 100 µM. The same measure, in the same setting: for `NCC#CCNCCCN1CC1` the value was over 100 µM. Same read-out and setting: for `Cc1cc2c(cc1Cl)SC(N/N=C(\N)c1ccc(Cl)cc1)=NS2(=O)=O` the value was over 100 µM.

Compound `COC(=O)C(=O)c1c2ccccc2n2ccc3c4ccccc4[nH]c3c12` yielded a TGI of over 10 µM.

The compound `CCOC(=O)C(Cc1ccccc1)NC(=O)c1ccc(N=NN(C)C)cc1` (stereo not given) showed a concentration for total growth inhibition (TGI) of over 100 µM. With `S=c1nc2[nH]ncc2c(N/N=C/c2ccccc2)[nH]1`, the GI50 is over 100 µM and the TGI is over 100 µM. As for `O=c1c2cc([N+](=O)[O-])ccc2n(Cc2ccccc2)n1Cc1ccccc1`, the TGI is over 31.6 µM. Still for that read-out and setting: for `COc1cc(-c2cc(=O)c3ccccc3o2)ccc1N` the value was over 100 µM; for `CS(=O)(=O)c1nc(-c2cc3c(c(S(C)(=O)=O)n2)CCCC3)cc2c1CCCC2`, over 100 µM; for `COc1ccccc1C(C1=C(O)COC1=O)c1cc2c(cc1OC(C)=O)OCO2` (stereo not given), over 100 µM. `COC1O[C@@H]2CCN3C(=O)[C@@H](OC(=O)c4ccc([N+](=O)[O-])cc4)[C@H]1C23` (stereo not given in full) returned a total growth inhibition concentration (TGI) of over 100 µM. Regarding `Cn1ncc2c(/N=C/c3cccs3)[nH]c(=S)nc21`, the GI50 was 37.2 µM and the concentration for total growth inhibition (TGI) was over 81.4 µM. For `Nc1ccccc1N/C(=C\C(=O)C(Cl)(Cl)Cl)c1ccccc1`, the TGI is over 100 µM.

The compound `C=C1C[C@@H](O)[C@@H](Br)C(C)(C)[C@]12CCC(C)(Cl)C(Br)C2` (stereo not given in full) came in with a TGI of over 100 µM. As to `c1cc(OCCN2CCCCCC2)ccc1CNc1ccc2nc(CCC3CCCCC3)[nH]c2c1`, the GI50 is 2.62 µM and the TGI came to 7.82 µM. Compound `COC(=O)N/N=C(/CCN1CCCC1)CC(c1ccccc1)c1c(O)c2ccccc2oc1=O` (stereo not given) displayed a TGI of over 100 µM.

As for `Cc1cccc(N=Nc2c(C)nn(C(=O)CC(=O)Nc3ccccc3)c2C)c1`, the TGI was over 100 µM.

With `CN(C)CCCN(c1nc(C(Cl)(Cl)Cl)ns1)c1nc(C(Cl)(Cl)Cl)ns1`, the GI50 is 6.47 µM and the TGI was 22.4 µM. Compound `O=C1OCC2(CO1)CC1C=CC2C1` (stereo not given) gave a TGI of over 100 µM. Regarding `COc1ccc(-c2cnc3ccnn3c2-c2cc(OC)c(OC)c(OC)c2)cc1`, the GI50 is 6.23 µM and the TGI is over 100 µM.

These data come from PubChem BioAssay (NCI).
